# Measured values: PubChem BioAssay AID924 (National Center for Advancing Translational Sciences (NCATS), 2007)
# About 1,200 (0.92%) of roughly 130,000 compounds were called active. This list was built around the results that the source calls inconclusive (neither active nor inactive); the mix of calls is not that of the screen. Calls follow the shape of the dose curve; as a rule, active = well fitted cell-killing curve with a large enough effect; inconclusive = small, poorly fitted or top-dose-only effect; inactive = no such curve, though single readings can be large or run the other way. Potencies of inconclusive entries are doubtful fits and often do not repeat.
# Assay: qHTS Screen for Compounds that Selectively Target Cancer Cells with p53 Mutations: Cytotoxicity of p53ts Cells at the Permissive Temperature; also: nearly all actives have a fitted effect of over 55% in size;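 as to activity change, negative = cytotoxicity: 0% = DMSO and -100% = full killing by reference compound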
# Conditions: H1299-p53A138V at 32C, ATP luminescence viability, 24 h; activity change, negative = cytotoxicity: at 46.1 µM (top of the series)
# Method in brief: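 Viability by ATPlite luminescence after 24 h compound treatment (up to 46 uM) at the permissive 32C. Cells are H1299 carrying p53 A138V. Scale runs from DMSO basal to 100 uM tamoxifen as full kill; AC50 from Hill fits.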
# Potency is read from the fitted curve at half-maximal effect; tags tell the direction and shape of the fitted curve.
SMILES,Potency,"activity change, negative = cytotoxicity"
O=C1C=CC(=O)c2c(O)c(Cl)c(Cl)c(O)c21,"inconclusive: 31.6 µM [cytotoxic, single point]",
COc1ccc2c(c1)c1c(c(=O)n(Cc3ccccc3)c(=O)n1CC(=O)Nc1ccccc1OC)n2C,,inactive: 2.06%
CCOc1ccc(Nc2nc(-c3cccc(Cl)c3)c3c(n2)-c2ccccc2OC3)cc1,"inconclusive: 12.6 µM [cytotoxic, partial curve]",
CCc1ccccc1Nc1nn2c(=O)c3ccc(C(=O)NCCC4=CCCCC4)cc3nc2s1,"inconclusive: 10 µM [cytotoxic, single point]",
COc1cccc(CSc2nc3ccncc3n2CC(=O)Nc2ccc(OC)c(OC)c2OC)c1,"inconclusive: 15.8 µM [cytotoxic, single point]",
Cc1cc(C)nc(N2CCCC(C(=O)Nc3ccc4nc(C)c(C)nc4c3)C2)n1 (stereo not given),,inactive: 1.16%
COc1ccc2[nH]c3c(c2c1)CCN(C(=O)CCC1CCCC1)C3c1ccc(F)cc1 (stereo not given),"inconclusive: 0.501 µM [cytotoxic, full curve, poor fit]",
c1ccc(CNc2ccc3ccccc3n2)nc1,"inconclusive: 15.8 µM [cytotoxic, partial curve]",
CCn1cc(C(=O)NCc2ccco2)c(=O)c2cc(S(=O)(=O)N3CC(C)CC(C)C3)ccc21 (stereo not given),"inconclusive: 2 µM [cytotoxic, full curve]",
CCc1ccc(S(=O)(=O)Nc2cccc(-c3ccc(N4CCCCC4)nn3)c2)s1,active: 12.6 µM,
O=C(Cn1cnc2ccccc2c1=O)Nc1ccc2c(c1)OCCO2,"inconclusive: 20 µM [cytotoxic, single point]",
O=C(Nc1ccc(F)c(Cl)c1)c1ccc2c(Cl)c3c(nc2c1)CCCC3,,inactive: -9.16%
CCCCN(C)CC(O)Cn1cc(/C=C/C(=O)c2ccc(Br)cc2)c2ccccc21 (stereo not given),"inconclusive: 31.6 µM [cytotoxic, single point]",
Cc1ccc(C(=O)Nc2nnn(C)n2)cc1,"inconclusive: 12.6 µM [cytotoxic, partial curve]",
CC(=O)NCCNC(=O)CCCn1c(=O)[nH]c2ccsc2c1=O,,inactive: -1.8%
Cc1ccc(-n2c(SCc3ccccc3F)nc3[nH]ncc3c2=O)cc1Cl,"inconclusive: 35.5 µM [cytotoxic, single point]",
C1CCc2nnnn2CC1,inactive,
COC(=O)N1CCC[C@@]2(CCN(c3ccccc3)C2)C1,,inactive: -4.63%
CCCOc1ccc(C2c3c(-c4ccccc4O)n[nH]c3C(=O)N2CCc2ccccc2)cc1OCC (stereo not given),"inconclusive: 35.5 µM [cytotoxic, single point]",
O=C(c1ccco1)N1CCC2(CC1)CCN(c1cccc(-c3ccccc3)c1)CC2,,inactive: 0.917%
COc1ccc(-c2nc3ccccn3c2NCc2ccc3c(c2)OCO3)cc1,"inconclusive: 12.6 µM [cytotoxic, single point]",
CC(C)NC(=O)c1ccccc1-c1nc(-c2ccccc2Cl)no1,,inactive: -18.5%
Cc1noc(C(=O)Nc2ccc3c(c2)OCO3)c1Cl,"inconclusive: 20 µM [cytotoxic, partial curve]",
OC(COCc1ccccc1)CN1CCN(c2ccccc2F)CC1 (stereo not given),"inconclusive: 0.251 µM [cytotoxic, full curve, poor fit]",
COc1cc(/C=C(\C#N)c2nc3ccc(C)cc3[nH]2)ccc1OCc1ccc(C)cc1,active: 15.8 µM,

SMILES,Potency,"activity change, negative = cytotoxicity"
COc1ccc(N2CCN(S(=O)(=O)c3ccc(F)c(C(=O)Nc4ccccc4Cl)c3)CC2)cc1,"inconclusive: 31.6 µM [cytotoxic, partial curve, poor fit]",
CCc1ccc(C(=O)c2cn(CC(=O)Nc3ccc4c(c3)OCO4)c3ccc(CC)cc3c2=O)cc1,"inconclusive: 12.6 µM [cytotoxic, single point]",
Cc1ccc(Nc2nc3nonc3nc2Nc2cccc(C(F)(F)F)c2)cc1Cl,active: 12.6 µM,
O=c1cc(-c2ccccc2)[nH]n1-c1nc2ccccc2[nH]1,"inconclusive: 20 µM [cytotoxic, single point]",
CC(=O)SCC(=O)N=c1sc2cc(F)ccc2n1C,"inconclusive: 31.6 µM [cytotoxic, single point]",
COc1ccccc1-n1nnnc1S(=O)(=O)Cc1ccc(Cl)cc1,"inconclusive: 15.8 µM [cytotoxic, single point]",
Cc1ccc2c(CNCCc3ccccc3)c(C(=O)O)n(Cc3ccccc3C)c2c1,,inactive: 1.73%
Cc1ccc(NC(=O)C2(c3cccs3)CCOCC2)cc1Cl,,inactive: 5.31%
Cc1ccc(C)c(CSc2nc(-c3ccccc3F)nc3c2Cc2c(CO)cnc(C)c2O3)c1,,inactive: 11.2%
c1ccc(COc2ccc(OCCCn3cncn3)cc2)cc1,"inconclusive: 12.6 µM [cytotoxic, partial curve]",
Cc1cc(C)cc(NC(=O)Cn2c(-c3cncs3)nc3ccccc32)c1,"inconclusive: 31.6 µM [cytotoxic, single point]",
NC(=O)c1ccccc1N/C=C/C(=O)c1ccco1,"inconclusive: 12.6 µM [cytotoxic, partial curve]",
Clc1ccc(OCc2nc(-c3ccccn3)no2)c(Br)c1,active: 12.6 µM,
Nc1c(C(=O)NCc2ccco2)sc2nc3c(cc12)C(=O)CCC3,,inactive: 13.2%
CCCCCn1c(NCc2ccc(OC)cc2)nc2ccccc21,"inconclusive: 20 µM [cytotoxic, single point]",
CCS(=O)(=O)N1CCCC(C(=O)NCCOC)C1 (stereo not given),,inactive: -9.77%
CC(C)c1nn2c(=O)cc(COC(=O)c3ccc(NC(=O)COc4ccccc4)cc3)nc2s1,,inactive: -10.7%
COc1ccc(/C=N/n2c(N)nc3ccccc32)cc1OC,"inconclusive: 15.8 µM [cytotoxic, partial curve]",
CN=Cc1sc2ccccc2c1O,,inactive: -2.69%
COc1ccc(Nc2ccc3c(c2)=NC2(CCCCC2)[N+]=3[O-])cc1,active: 5.01 µM,
COc1ccc2cc(-c3nc4ccccc4n3C)c(=O)oc2c1,"inconclusive: 10 µM [cytotoxic, partial curve]",
COC(=O)Cn1c(C2CC(=O)N(c3c(C)cccc3C)C2)nc2ccccc21 (stereo not given),,inactive: -1.16%
CCCCC(=O)Nc1ccc2nc(SCC(=O)N3CCc4ccccc43)sc2c1,,inactive: -6.77%
CC(=O)c1c(C)[nH]c(C(=O)Nc2ccc3c(c2)OCCO3)c1C,"inconclusive: 12.6 µM [cytotoxic, partial curve]",
O=C(CCCn1c2ccccc2c(=O)c2ccccc21)Nc1cccc(Cl)c1,"inconclusive: 31.6 µM [cytotoxic, single point]",

SMILES,Potency,"activity change, negative = cytotoxicity"
CCOC(=O)c1cccc(NC(=O)CCSCCc2ccccn2)c1,,inactive: 10.5%
COc1cccc(NC(=O)NC2(C(F)(F)F)Oc3ccccc3O2)c1,"inconclusive: 0.631 µM [cytotoxic, full curve, poor fit]",
Cc1cc(C(=O)Nc2sc3c(c2C#N)CCC3)no1,active: 10 µM,
CCc1ccc(NC(=O)CSc2ccnc(=O)[nH]2)cc1,"inconclusive: 11.2 µM [cytotoxic, partial curve]",
COc1cc(C)ccc1OCCSc1nc2ccc(NC(=O)c3ccco3)cc2s1,,inactive: -1.06%
O=C(COc1ccc(Cl)cc1Cl)NC(=O)N1CCCCC1,active: 12.6 µM,
Cc1nn(Cc2ccc(Cl)cc2Cl)c(C)c1NC(=O)CCl,active: 17.8 µM,
COc1ccc(NC(=O)Nc2ccc3nccnc3c2)cc1,"inconclusive: 12.6 µM [cytotoxic, partial curve]",
CN1C(=O)C(Cc2c[nH]c3ccccc23)NC1=S (stereo not given),"inconclusive: 31.6 µM [cytotoxic, single point]",
CCOC(=O)c1cc(-c2ccccc2)n(-c2cccc(C(=O)Nc3cccc(SC)c3)c2)c1C,,inactive: 10.9%
CCOc1ccc(-c2n[nH]c(C)c2-c2ccccc2OC)c(O)c1,"inconclusive: 31.6 µM [cytotoxic, single point]",
O=C(c1ccc([N+](=O)[O-])s1)N1CCN(c2ccccc2)CC1,"inconclusive: 14.1 µM [cytotoxic, partial curve, poor fit]",
CCOc1ccc(C2=C(C(=O)CC)Sc3nncn3N2C(=O)CC)cc1,active: 11.2 µM,
CC1CCC2CC1C2(C)C (stereo not given),,inactive: 6.44% [at 1.84 µM]
CCOC(=O)C(C(=O)OCC)c1cc(Br)c2noc3c2c1C(=O)c1ccccc1-3,"inconclusive: 25.1 µM [cytotoxic, single point]",
O=C1/C(=C/c2cccs2)COc2ccccc21,"inconclusive: 0.0158 µM [cytotoxic, full curve, poor fit]",
CCCC1=Nc2cc(C(=O)NCC(C)c3ccccc3)ccc2Sc2ccccc21 (stereo not given),"inconclusive: 25.1 µM [cytotoxic, single point]",
Cn1c(=O)c(C(=O)COC(=O)c2cc(-c3ccccc3)nc3ccccc23)c(N)n(Cc2ccccc2)c1=O,,inactive: 1.5%
Cc1ccc(C(=O)/C=C/c2cn(CC(O)CN3CCCCCC3)c3ccccc23)cc1 (stereo not given),"inconclusive: 31.6 µM [cytotoxic, single point]",
COc1ccc(/C=C/C(=O)c2cccs2)c(OC)c1,active: 15.8 µM,
CCOc1ccc2nc(NC(=O)c3ccoc3C)sc2c1,"inconclusive: 6.31 µM [cytotoxic, partial curve]",
O=C(NCCN1CCCCC1)c1ccc(Cn2c(SCc3ccc(F)cc3)nc3cccnc32)cc1,active: 7.94 µM,
COC(=O)c1cccc(Nc2nc3ccccc3nc2C)c1,"inconclusive: 12.6 µM [cytotoxic, single point]",
CN(C)CCSc1nnc(-c2ccccc2)o1,,inactive: -3.29%
CCc1cccc(NC(=O)C(Cc2ccccc2)NS(=O)(=O)c2ccc3c(c2)c(=O)n(C)c(=O)n3C)c1 (stereo not given),,inactive: 5.53%
